Results are given in words; binding and its absence hold for the method and conditions named. Binding seen in cells or lysates may run through a third protein. Some results given as binding are weak or reduced against the parent protein; the word gives no strength. Sequences can lack the tags named with a protein.

Chains of the proteins cited; added tags and fusions are not shown.
UniProt Q6W2J9: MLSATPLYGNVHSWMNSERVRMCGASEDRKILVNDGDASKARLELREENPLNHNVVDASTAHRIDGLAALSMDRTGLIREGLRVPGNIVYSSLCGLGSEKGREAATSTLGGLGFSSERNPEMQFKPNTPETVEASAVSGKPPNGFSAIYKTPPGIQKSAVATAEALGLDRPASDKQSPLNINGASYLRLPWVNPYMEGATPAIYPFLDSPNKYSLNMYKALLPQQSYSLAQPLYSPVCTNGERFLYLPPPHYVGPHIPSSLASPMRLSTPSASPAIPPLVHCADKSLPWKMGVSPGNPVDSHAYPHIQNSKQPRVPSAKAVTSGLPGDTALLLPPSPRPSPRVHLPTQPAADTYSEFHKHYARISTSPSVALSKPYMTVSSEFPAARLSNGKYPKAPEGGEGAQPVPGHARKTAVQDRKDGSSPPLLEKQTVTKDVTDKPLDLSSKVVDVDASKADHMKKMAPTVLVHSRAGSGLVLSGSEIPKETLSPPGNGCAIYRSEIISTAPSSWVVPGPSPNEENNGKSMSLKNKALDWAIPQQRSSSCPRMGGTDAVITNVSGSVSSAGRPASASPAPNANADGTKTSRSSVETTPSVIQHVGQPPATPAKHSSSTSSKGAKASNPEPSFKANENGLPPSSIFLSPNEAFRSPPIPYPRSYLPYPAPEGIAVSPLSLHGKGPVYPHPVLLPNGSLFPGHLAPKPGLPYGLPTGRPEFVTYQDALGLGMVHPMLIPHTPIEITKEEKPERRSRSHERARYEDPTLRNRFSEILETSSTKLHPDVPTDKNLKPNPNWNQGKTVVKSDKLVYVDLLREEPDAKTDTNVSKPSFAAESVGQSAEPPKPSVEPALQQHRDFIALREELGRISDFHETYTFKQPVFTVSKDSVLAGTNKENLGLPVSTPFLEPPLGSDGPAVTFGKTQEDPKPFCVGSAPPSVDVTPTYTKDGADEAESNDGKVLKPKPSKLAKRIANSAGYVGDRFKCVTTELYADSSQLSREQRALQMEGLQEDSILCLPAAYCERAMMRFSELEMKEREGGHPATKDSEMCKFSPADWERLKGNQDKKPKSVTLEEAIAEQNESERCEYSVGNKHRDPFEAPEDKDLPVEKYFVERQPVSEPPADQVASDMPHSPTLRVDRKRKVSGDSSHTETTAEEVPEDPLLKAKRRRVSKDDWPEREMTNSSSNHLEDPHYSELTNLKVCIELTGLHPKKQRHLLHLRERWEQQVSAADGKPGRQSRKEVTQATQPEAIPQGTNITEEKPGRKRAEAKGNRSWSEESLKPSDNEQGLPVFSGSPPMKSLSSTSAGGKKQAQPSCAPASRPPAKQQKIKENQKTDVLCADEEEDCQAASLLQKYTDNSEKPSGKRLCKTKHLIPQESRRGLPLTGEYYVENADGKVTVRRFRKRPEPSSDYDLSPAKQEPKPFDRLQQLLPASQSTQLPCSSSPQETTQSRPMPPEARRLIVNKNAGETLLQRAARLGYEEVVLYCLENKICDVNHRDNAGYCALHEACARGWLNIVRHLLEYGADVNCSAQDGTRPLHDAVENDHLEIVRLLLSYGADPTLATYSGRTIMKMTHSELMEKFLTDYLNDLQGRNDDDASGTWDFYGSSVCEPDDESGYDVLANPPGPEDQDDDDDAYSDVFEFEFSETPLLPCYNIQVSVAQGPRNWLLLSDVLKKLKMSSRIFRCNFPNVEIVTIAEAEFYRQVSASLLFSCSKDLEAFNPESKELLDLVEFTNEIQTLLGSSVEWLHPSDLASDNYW
UniProt Q8WXI9: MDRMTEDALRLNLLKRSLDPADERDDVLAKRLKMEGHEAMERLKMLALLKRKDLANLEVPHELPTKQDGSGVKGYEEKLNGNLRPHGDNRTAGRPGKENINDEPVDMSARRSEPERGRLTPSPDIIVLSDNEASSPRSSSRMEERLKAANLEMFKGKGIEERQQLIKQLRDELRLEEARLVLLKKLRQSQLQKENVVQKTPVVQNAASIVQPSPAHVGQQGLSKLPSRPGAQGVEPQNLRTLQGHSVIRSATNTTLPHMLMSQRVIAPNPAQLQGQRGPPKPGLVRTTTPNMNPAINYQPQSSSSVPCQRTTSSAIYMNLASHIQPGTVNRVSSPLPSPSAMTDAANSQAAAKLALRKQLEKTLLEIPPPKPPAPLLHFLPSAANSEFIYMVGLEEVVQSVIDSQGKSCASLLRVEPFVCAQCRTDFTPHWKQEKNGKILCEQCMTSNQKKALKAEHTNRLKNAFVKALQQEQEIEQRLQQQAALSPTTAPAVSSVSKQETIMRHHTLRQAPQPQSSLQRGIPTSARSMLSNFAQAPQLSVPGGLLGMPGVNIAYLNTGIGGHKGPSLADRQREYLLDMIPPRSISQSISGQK

The target in this assay is T1, YFP-TBR1 p.W271R (human) (UniProt Q16650).
T1 sequence: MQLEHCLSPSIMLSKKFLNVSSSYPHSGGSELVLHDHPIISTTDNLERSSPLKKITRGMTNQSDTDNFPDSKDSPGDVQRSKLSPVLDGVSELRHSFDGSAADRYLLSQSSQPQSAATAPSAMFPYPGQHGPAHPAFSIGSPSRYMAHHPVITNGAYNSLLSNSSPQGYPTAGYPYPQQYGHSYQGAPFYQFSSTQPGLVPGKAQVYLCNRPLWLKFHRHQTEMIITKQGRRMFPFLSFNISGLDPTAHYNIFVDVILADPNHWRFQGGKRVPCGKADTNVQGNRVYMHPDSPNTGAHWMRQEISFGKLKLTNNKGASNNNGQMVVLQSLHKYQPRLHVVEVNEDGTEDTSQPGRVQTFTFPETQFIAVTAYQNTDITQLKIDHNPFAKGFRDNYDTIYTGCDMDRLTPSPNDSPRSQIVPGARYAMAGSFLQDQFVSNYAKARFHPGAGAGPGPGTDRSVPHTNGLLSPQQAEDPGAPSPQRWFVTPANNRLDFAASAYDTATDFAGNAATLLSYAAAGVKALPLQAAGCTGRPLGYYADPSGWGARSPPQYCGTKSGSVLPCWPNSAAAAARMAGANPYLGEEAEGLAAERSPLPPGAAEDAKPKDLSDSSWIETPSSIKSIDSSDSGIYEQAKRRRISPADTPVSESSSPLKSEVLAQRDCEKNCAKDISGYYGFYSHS
The experiment in a line: FRET or BRET; BRET in live HEK293 cells transfected with pairs of N-terminal Rluc and YFP fusions, 96-well plates; EnduRen substrate 48 h after transfection; Rluc-NLS and YFP-NLS as controls. In general terms: Bioluminescence resonance energy transfer reports proximity on the nanometre scale.

With Rluc-BCOR (from UniProt Q6W2J9 1-1755), the binding result is “binds”. In the case of “Rluc-GATAD2B (from UniProt Q8WXI9 1-593)”, the binding entry was “binds”.

B1: Rluc-NR2F2 (protein, UniProt P24468 1-414)
chain: MAMVVSTWRDPQDEVPGSQGSQASQAPPVPGPPPGAPHTPQTPGQGGPASTPAQTAAGGQGGPGGPGSDKQQQQQHIECVVCGDKSSGKHYGQFTCEGCKSFFKRSVRRNLSYTCRANRNCPIDQHHRNQCQYCRLKKCLKVGMRREAVQRGRMPPTQPTHGQFALTNGDPLNCHSYLSGYISLLLRAEPYPTSRFGSQCMQPNNIMGIENICELAARMLFSAVEWARNIPFFPDLQITDQVALLRLTWSELFVLNAAQCSMPLHVAPLLAAAGLHASPMSADRVVAFMDHIRIFQEQVEKLKALHVDSAEYSCLKAIVLFTSDACGLSDVAHVESLQEKSQCALEEYVRSQYPNQPTRFGKLLLRLPSLRTVSSSVIEQLFFVRLVGKTPIETLIRDMLLSGSSFNWPYMAIQ
In the case of B1, the binding result is “binds”.

B2: Rluc-NR2F1 (protein, UniProt P10589 1-423)
chain: MAMVVSSWRDPQDDVAGGNPGGPNPAAQAARGGGGGAGEQQQQAGSGAPHTPQTPGQPGAPATPGTAGDKGQGPPGSGQSQQHIECVVCGDKSSGKHYGQFTCEGCKSFFKRSVRRNLTYTCRANRNCPIDQHHRNQCQYCRLKKCLKVGMRREAVQRGRMPPTQPNPGQYALTNGDPLNGHCYLSGYISLLLRAEPYPTSRYGSQCMQPNNIMGIENICELAARLLFSAVEWARNIPFFPDLQITDQVSLLRLTWSELFVLNAAQCSMPLHVAPLLAAAGLHASPMSADRVVAFMDHIRIFQEQVEKLKALHVDSAEYSCLKAIVLFTSDACGLSDAAHIESLQEKSQCALEEYVRSQYPNQPSRFGKLLLRLPSLRTVSSSVIEQLFFVRLVGKTPIETLIRDMLLSGSSFNWPYMSIQCS
As to B2, the binding result is given as “binds”.
